# Test results published in the supplement of paper PMC8728848.
# This is one part of the list.
# B1: MGL2 (Mus musculus), Q8JZN1 (protein)
# chain: MTMRYENFQNLEREEKNQEMRNGDKKGGMESPKFALIPSQSFLWRILSWTHLLLFSLGLSLLLLVVISVIGSQNSQLRRDLGTLRAILDNTTSKIKAEFQSLDSRADNFEKGISSLKVDVEDHRQELQAGRDLSQKVTSLESTLEKREQALKTDLSDLTDHVQQLETDLKALTCQLANLKNNGSEVACCPLHWTEHEGSCYWFSESEKSWPEADKYCRLENSHLVVVNSLEEQNFLQNRLANVLSWMGLTDQNGPWRWVDGTDFDKGFKNWRPLQPDNWHGHMLGGGEDCAHFSYDGRWNDDVCQRHYHWICETELGKASSAHSPQLIASVP
# Tests used:
# Assay in all cases: glycan array binding signal (z-score within array); higher = stronger binding
# Conditions in all cases: glycan notation: IUPAC condensed, linker removed
# [1] = target: Fuc(a1-2)[GalNAc(a1-3)]Gal(b1-3)GlcNAc(b1-3)GalNAc
# Procedure, shortened: (§1)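 The binding signal is a Z-score computed within each array and averaged over linkers. Arrays of the same protein sequence at different concentrations or buffers were also averaged together. Data originate from 3228 arrays in the Consortium for Functional Glycomics database, kept only where the protein sequence was available.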
# [2] = target: Fuc(a1-2)[GalNAc(a1-3)]Gal(b1-3)GlcNAc(b1-6)GalNAc
# Procedure, shortened: as §1
# [3] = target: Fuc(a1-2)[GalNAc(a1-3)]Gal(b1-4)Glc
# Procedure, shortened: as §1
# [4] = target: Fuc(a1-2)[GalNAc(a1-3)]Gal(b1-4)GlcNAc
# Procedure, shortened: as §1
# [5] = target: Fuc(a1-2)[GalNAc(a1-3)]Gal(b1-4)GlcNAc(b1-2)Man
# Procedure, shortened: as §1
# [6] = target: Fuc(a1-2)[GalNAc(a1-3)]Gal(b1-4)GlcNAc(b1-2)Man(a1-3)[Fuc(a1-2)[GalNAc(a1-3)]Gal(b1-4)GlcNAc(b1-2)Man(a1-6)]Man(b1-4)GlcNAc(b1-4)GlcNAc
# Procedure, shortened: as §1
# [7] = target: Fuc(a1-2)[GalNAc(a1-3)]Gal(b1-4)GlcNAc(b1-2)Man(a1-3)[Fuc(a1-2)[GalNAc(a1-3)]Gal(b1-4)GlcNAc(b1-2)Man(a1-6)]Man(b1-4)GlcNAc(b1-4)[Fuc(a1-6)]GlcNAc
# Procedure, shortened: as §1
# [8] = target: Fuc(a1-2)[GalNAc(a1-3)]Gal(b1-4)GlcNAc(b1-3)Gal(b1-4)GlcNAc
# Procedure, shortened: as §1
# [9] = target: Fuc(a1-2)[GalNAc(a1-3)]Gal(b1-4)GlcNAc(b1-3)Gal(b1-4)GlcNAc(b1-3)Gal(b1-4)GlcNAc
# Procedure, shortened: as §1
# [10] = target: Fuc(a1-2)[GalNAc(a1-3)]Gal(b1-4)GlcNAc(b1-3)GalNAc
# Procedure, shortened: as §1
# [11] = target: Fuc(a1-2)[GalNAc(a1-3)]Gal(b1-4)GlcNAc(b1-3)[Fuc(a1-2)[GalNAc(a1-3)]Gal(b1-4)GlcNAc(b1-6)]GalNAc
# Procedure, shortened: as §1
# [12] = target: Fuc(a1-2)[GalNAc(a1-3)]Gal(b1-4)GlcNAc(b1-6)GalNAc
# Procedure, shortened: as §1
# [13] = target: Fuc(a1-2)[GalNAc(a1-3)]Gal(b1-4)[Fuc(a1-3)]GlcNAc
# Procedure, shortened: as §1
# [14] = target: Fuc(a1-2)[GalNAc(a1-3)]Gal(b1-4)[Fuc(a1-3)]GlcNAc(b1-3)GalNAc
# Procedure, shortened: as §1
# [15] = target: Fuc(a1-2)[GalNAc(a1-4)]Gal(b1-4)GlcNAc
# Procedure, shortened: as §1
# [16] = target: Fuc(a1-2)[GalNAc(b1-3)]Gal
# Procedure, shortened: as §1
# [17] = target: Fuc(a1-3)GlcNAc
# Procedure, shortened: as §1
# [18] = target: Fuc(a1-3)[Gal(b1-4)]Glc6S
# Procedure, shortened: as §1
# [19] = target: Fuc(a1-3)[Gal(b1-4)]GlcNAc
# Procedure, shortened: as §1
# [20] = target: Fuc(a1-3)[Gal(b1-4)]GlcNAc(b1-2)Man
# Procedure, shortened: as §1
# [21] = target: Fuc(a1-3)[Gal(b1-4)]GlcNAc(b1-2)Man(a1-3)[Fuc(a1-3)[Gal(b1-4)]GlcNAc(b1-2)Man(a1-6)]Man(b1-4)GlcNAc(b1-4)GlcNAc
# Procedure, shortened: as §1
# [22] = target: Fuc(a1-3)[Gal(b1-4)]GlcNAc(b1-2)Man(a1-3)[Fuc(a1-3)[Gal(b1-4)]GlcNAc(b1-2)Man(a1-6)]Man(b1-4)GlcNAc(b1-4)[Fuc(a1-6)]GlcNAc
# Procedure, shortened: as §1
# [23] = target: Fuc(a1-3)[Gal(b1-4)]GlcNAc(b1-3)Gal(b1-3)[Fuc(a1-4)]GlcNAc
# Procedure, shortened: as §1
# [24] = target: Fuc(a1-3)[Gal(b1-4)]GlcNAc(b1-3)Gal(b1-4)[Fuc(a1-3)]GlcNAc
# Procedure, shortened: as §1
# [25] = target: Fuc(a1-3)[Gal(b1-4)]GlcNAc(b1-3)Gal(b1-4)[Fuc(a1-3)]GlcNAc(b1-3)Gal(b1-4)[Fuc(a1-3)]GlcNAc
# Procedure, shortened: as §1
# [26] = target: Fuc(a1-3)[Gal(b1-4)]GlcNAc(b1-3)GalNAc
# Procedure, shortened: as §1
# [27] = target: Fuc(a1-3)[Gal(b1-4)]GlcNAc(b1-6)GalNAc
# Procedure, shortened: as §1
# [28] = target: Fuc(a1-3)[Gal(b1-4)]GlcNAc(b1-6)[Gal(b1-3)GlcNAc(b1-3)]Gal(b1-4)Glc
# Procedure, shortened: as §1
# [29] = target: Fuc(a1-3)[Gal(b1-4)]GlcNAc6S
# Procedure, shortened: as §1
# [30] = target: Fuc(a1-3)[Gal3S(b1-4)]Glc
# Procedure, shortened: as §1
# [31] = target: Fuc(a1-3)[Gal3S(b1-4)]GlcNAc
# Procedure, shortened: as §1
# [32] = target: Fuc(a1-3)[Gal3S(b1-4)]GlcNAc6S
# Procedure, shortened: as §1
# [33] = target: Fuc(a1-3)[GalNAc(b1-4)]GlcNAc
# Procedure, shortened: as §1
# [34] = target: Fuc(a1-3)[GalNAc(b1-4)]GlcNAc6S
# Procedure, shortened: as §1
# [35] = target: Fuc(a1-4)GlcNAc
# Procedure, shortened: as §1
# [36] = target: Fuc(b1-3)GlcNAc
# Procedure, shortened: as §1
# [37] = target: Gal(a1-2)Gal
# Procedure, shortened: as §1
binder,measurement,setting,value
B1,glycan array binding signal (z-score),[1],-0.269
same,glycan array binding signal (z-score),[2],-0.034
same,glycan array binding signal (z-score),[3],-0.15
same,glycan array binding signal (z-score),[4],-0.032
same,glycan array binding signal (z-score),[5],-0.314
same,glycan array binding signal (z-score),[6],-0.329
same,glycan array binding signal (z-score),[7],-0.211
same,glycan array binding signal (z-score),[8],-0.224
same,glycan array binding signal (z-score),[9],-0.012
same,glycan array binding signal (z-score),[10],-0.156
same,glycan array binding signal (z-score),[11],-0.19
same,glycan array binding signal (z-score),[12],0.469
same,glycan array binding signal (z-score),[13],-0.204
same,glycan array binding signal (z-score),[14],-0.156
same,glycan array binding signal (z-score),[15],0.748
same,glycan array binding signal (z-score),[16],12.2
same,glycan array binding signal (z-score),[17],-0.198
same,glycan array binding signal (z-score),[18],-0.012
same,glycan array binding signal (z-score),[19],-0.25
same,glycan array binding signal (z-score),[20],-0.064
same,glycan array binding signal (z-score),[21],-0.17
same,glycan array binding signal (z-score),[22],-0.28
same,glycan array binding signal (z-score),[23],-0.046
same,glycan array binding signal (z-score),[24],-0.202
same,glycan array binding signal (z-score),[25],-0.217
same,glycan array binding signal (z-score),[26],-0.203
same,glycan array binding signal (z-score),[27],-0.12
same,glycan array binding signal (z-score),[28],-0.15
same,glycan array binding signal (z-score),[29],-0.113
same,glycan array binding signal (z-score),[30],-0.218
same,glycan array binding signal (z-score),[31],-0.187
same,glycan array binding signal (z-score),[32],-0.185
same,glycan array binding signal (z-score),[33],0.6
same,glycan array binding signal (z-score),[34],0.036
same,glycan array binding signal (z-score),[35],0.024
same,glycan array binding signal (z-score),[36],-0.225
same,glycan array binding signal (z-score),[37],-0.276
